Assay results taken from PubChem BioAssay AID588591 (National Center for Advancing Translational Sciences (NCATS), 2011).
Among all 390,000 compounds or so, about 4,700 (1.2%) were called active. Inconclusive results, whose numbers are uncertain, are shown with a selection of clear calls. Calls follow the shape of the dose curve; as a rule, active = well fitted inhibition curve with a large enough effect; inconclusive = small, poorly fitted or top-dose-only effect, or another doubt; inactive = no such curve, though single readings can be large or run the other way. A potency beside an inconclusive call is a rough fit, not a confirmed value.

The compounds below were run against DNA polymerase eta (Homo sapiens) (UniProt Q9Y253) (assay: qHTS for Inhibitors of Polymerase Eta). Conditions: recombinant Pol eta, fluorescent DNA replication assay; series mostly up to 114 µM; activity change, negative = inhibition: at the top concentration.
UniProt Q9Y253, sequence (Q9Y253 whole entry, looked up): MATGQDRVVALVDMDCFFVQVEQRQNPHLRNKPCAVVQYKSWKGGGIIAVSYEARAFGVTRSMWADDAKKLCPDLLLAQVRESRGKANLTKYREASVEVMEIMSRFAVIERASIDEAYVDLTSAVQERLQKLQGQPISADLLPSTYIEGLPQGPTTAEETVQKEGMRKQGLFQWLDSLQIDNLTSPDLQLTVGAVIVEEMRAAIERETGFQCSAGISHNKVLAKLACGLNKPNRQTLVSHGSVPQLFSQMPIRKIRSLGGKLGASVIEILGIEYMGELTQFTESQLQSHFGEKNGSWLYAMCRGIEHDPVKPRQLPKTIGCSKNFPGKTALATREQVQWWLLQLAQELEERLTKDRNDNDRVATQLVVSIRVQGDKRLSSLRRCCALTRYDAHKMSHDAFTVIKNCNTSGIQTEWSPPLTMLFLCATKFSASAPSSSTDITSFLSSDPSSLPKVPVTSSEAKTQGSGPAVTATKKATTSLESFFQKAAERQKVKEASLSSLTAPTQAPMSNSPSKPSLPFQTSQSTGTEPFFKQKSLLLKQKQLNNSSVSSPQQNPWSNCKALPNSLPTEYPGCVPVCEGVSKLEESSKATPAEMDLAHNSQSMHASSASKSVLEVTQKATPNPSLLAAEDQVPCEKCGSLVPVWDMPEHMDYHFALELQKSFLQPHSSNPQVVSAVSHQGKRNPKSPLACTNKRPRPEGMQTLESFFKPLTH
In short: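 Pol eta (10 nM) was preincubated with compounds for 15 min at room temperature, after which fluorescent replication substrate (50 nM final) was added to start the reaction. Fluorescence was read kinetically at 0 and 10 min.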
% is scaled to controls: 0 for no effect and ±100 for the full control effect; potency is read from the fitted curve at half-maximal effect; tags tell the direction and shape of the fitted curve.

Structure (SMILES)	activity change, negative = inhibition	Potency
Cc1nc2ccccn2c1C(=O)N/N=C/c1ccccc1[N+](=O)[O-]	inactive: -12.4%	
Cn1c(N)c(C(=O)COC(=O)c2cncc(Br)c2)c(=O)n(C)c1=O		inconclusive: 35.5 µM [inhibitor, full curve]
CNC(=S)N1CCc2sccc2C1C (stereo not drawn)		inconclusive: 100 µM [inhibitor, partial curve, poor fit]
CC1(C)Cc2c(sc(NC(=O)/C=C/C(=O)O)c2C#N)CO1		inconclusive: 22.4 µM [inhibitor, full curve]
O=C(Nc1c(Cl)ccc2nsnc12)c1ccc([N+](=O)[O-])o1		inconclusive: 79.4 µM [inhibitor, partial curve, poor fit]
Cc1ccc(C)c(NS(=O)(=O)c2cc(C(=O)NCc3ccncc3)ccc2C)c1		inconclusive: 89.1 µM [inhibitor, partial curve, poor fit]
COC(=O)c1c(NC(=O)COC(=O)c2ccc(NC(=O)CC#N)cc2)sc2c1CCCCC2		active: 28.2 µM
O=c1c2ccccc2nc2sc3ccccc3n12		inconclusive: 28.2 µM [inhibitor, single point]
COc1ccc(NC(C)c2cc(Cl)ccc2O)cc1 (stereo not drawn)		inconclusive: 70.8 µM [inhibitor, partial curve, poor fit]
CC(C)(C)C(=O)COC(=O)c1c2c(nc3ccccc13)CCC2		active: 79.4 µM
O=C(O)C1C2C=CC(C2)C1C(=O)NCc1cccs1 (stereo not drawn)	inactive: -12.5%	
COc1ccc2nc(-c3cccc(N)c3)[nH]c2c1		inconclusive: 15.8 µM [inhibitor, partial curve, poor fit]
CC(=O)Nc1nonc1-c1nnc(SCC(=O)N(C)c2ccccc2)n1C	inactive: -15.8%	
COc1ccc(C2(CNC(=O)/C=C\c3ccco3)CCCC2)cc1OC		inconclusive: 28.2 µM [inhibitor, single point]
CCn1c2ccccc2c2cc(N=C3SC(CC(=O)Nc4ccccc4OC)C(=O)N3CCOC)ccc21 (stereo not drawn)		inconclusive: 22.4 µM [inhibitor, single point]
Cc1cc(NS(=O)(=O)c2ccc(NC(=O)c3cc4c(=O)n5ccccc5nc4s3)cc2)nc(C)n1		active: 20 µM
O=C(Nc1cccc(S(=O)(=O)NC2=NCCCCC2)c1)c1cc(-c2ccco2)nc2ccccc12		inconclusive: 56.2 µM [inhibitor, partial curve, poor fit]
Cc1[nH]n(-c2cccc3ccccc23)c(=O)c1C=Nc1ccc2[nH]c(=O)[nH]c2c1		inconclusive: 15.8 µM [inhibitor, full curve, poor fit]
CC1(CC(=O)N/N=C/c2cc([N+](=O)[O-])c(O)cc2O)OCCO1		active: 22.4 µM
Cc1ccc(S(=O)(=O)Nc2ccc(C(=O)N3CCN(c4ccccc4O)CC3)cc2)cc1[N+](=O)[O-]		inconclusive: 17.8 µM [inhibitor, full curve]
CSc1cccc(Nc2nc3c(S(=O)(=O)c4ccccc4)nnn3c3ccc(Cl)cc23)c1	inactive: -5.78%	
CCOc1ccc(OCc2ccc(C(=O)O)o2)cc1		active: 12.6 µM

Structure (SMILES)	activity change, negative = inhibition	Potency
CC1=NN2C(=N)/C(=C\c3ccc(SCc4ccccc4)o3)C(=O)N=C2S1		inconclusive: 89.1 µM [inhibitor, single point]
Cc1ccccc1CCN(C(=O)Cn1nnc2ccccc21)C(C(=O)NCC1CCCO1)c1nc2ccccc2n1C (stereo not drawn)		inconclusive: 17.8 µM [inhibitor, partial curve, poor fit]
CC(C)(C)c1cc(=O)n(-c2ccccc2)[nH]1		inconclusive: 89.1 µM [inhibitor, single point]
O=C(O)/C(=C\c1cccc(C(F)(F)F)c1)c1ccc(S(=O)(=O)N2CCCC2)s1		inconclusive: 28.2 µM [inhibitor, partial curve]
O=C(CCCSc1ccccc1)Nc1nc(-c2ccco2)c(-c2ccco2)s1		inconclusive: 22.4 µM [inhibitor, full curve, poor fit]
O=C(Cc1cccs1)N=Nc1c(O)[nH]c2ccc(Br)cc12	inactive: -0.204%	
Cc1oc(/N=C/c2cccc3ccccc23)c(C#N)c1C		active: 25.1 µM
O=C(O)c1c(CNCc2cccc(F)c2)c2ccccc2n1Cc1ccccc1	inactive: -0.34%	
CCOc1ccc(CCNC(=O)c2ccc(Cl)c(S(=O)(=O)N3CCOCC3)c2)cc1OCC		inconclusive: 79.4 µM [inhibitor, partial curve]
COc1ccc(C2CC(=O)c3c(ccc4ccccc34)N2)cc1OC (stereo not drawn)		inconclusive: 35.5 µM [inhibitor, partial curve, poor fit]
CC(C)=CCc1c(O)ccc2c1OC(c1ccc(O)c(O)c1)CC2=O (stereo not drawn)	inactive: -15.1%	
O=C(Oc1ccc2c(=O)c(Oc3ccc4ccccc4c3)coc2c1)c1cncc(Br)c1	inactive: 8.21%	
COc1ccc(CN2CCN(C(=O)CCC(=O)c3ccc(C)s3)CC2)cc1OC		active: 25.1 µM
O=C(CCCC(=O)NCc1ccc(F)cc1)NCc1ccc(F)cc1		inconclusive: 89.1 µM [inhibitor, partial curve, poor fit]
O=C(O)c1cc2cc(S(=O)(=O)O)ccc2cc1O	inactive: -1.19%	
Cc1c(C(=O)N/N=C/c2cccnc2)nnn1-c1nonc1N	inactive: 1.17%	
O=C(CN1CCN(Cc2ccccc2)CC1)N/N=C/C=C/c1ccccc1[N+](=O)[O-]		inconclusive: 100 µM [inhibitor, partial curve, poor fit]
Cc1ncc(CN2CCCC(C(=O)Nc3ccc(-c4ccco4)cc3)C2)cn1 (stereo not drawn)		inconclusive: 20 µM [inhibitor, full curve, poor fit]
COc1cc(OC)cc(C(=O)Nc2ccc3nc(Nc4cccc(C(F)(F)F)c4)cc(C)c3c2)c1		inconclusive: 79.4 µM [inhibitor, partial curve, poor fit]
COc1ccc(C(=O)N(C)CCOc2ccc(Cl)cc2)cc1S(=O)(=O)N1CCCC1	inactive: -10.6%	
Cc1cccc(C(=O)NCC(=O)N2CCN(S(=O)(=O)c3ccccc3)CC2)c1		inconclusive: 89.1 µM [inhibitor, partial curve, poor fit]
